Measurements published in the supplement of paper PMC4967469.

Compound: FC(F)c1nc2ccccc2n1-c1nc(N2CCOCC2)nc(N2CCOCC2)n1 [ZSTK474]
Test: Viability of human cancer cell lines after 72 h of drug (GDSC screen)
Method: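 Human cancer cell lines in 384-well plates, medium with 10% serum, drug for 72 h over a 256-fold dose range (nine 2-fold or five 4-fold steps up to the top dose). Adherent lines were fixed and stained with the nucleic acid dye Syto60, suspension lines read with resazurin; signal relative to control wells, capped at 0 and 100%. One two-parameter sigmoid per drug and line, fitted in a mixed model over all curves with the slope shared within a line.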

Row | Cell Line | AUC | IC50 [nM]
1 | NCI-H2227 (small cell lung carcinoma, semi-adherent, top dose 5.12 µM) | 0.761 | 2040
2 | NCI-H2228 (lung adenocarcinoma, adherent, top dose 5.12 µM) | 0.717 | 1840
3 | NCI-H2291 (lung adenocarcinoma, adherent, top dose 5.12 µM) | 0.978 | > 5120
4 | NCI-H2342 (lung adenocarcinoma, adherent, top dose 5.12 µM) | 0.885 | > 5120
5 | NCI-H2347 (lung adenocarcinoma, adherent, top dose 5.12 µM) | 0.795 | 2970
6 | NCI-H2405 (lung adenocarcinoma, adherent, top dose 5.12 µM) | 0.772 | 2200
7 | NCI-H2444 (non-small cell lung carcinoma, adherent, top dose 5.12 µM) | 0.963 | > 5120
8 | NCI-H2452 (mesothelioma, adherent, top dose 5.12 µM) | 0.984 | > 5120
9 | NCI-H3122 (lung adenocarcinoma, adherent, top dose 5.12 µM) | 0.752 | 1750
10 | NCI-SNU-1 (stomach, suspension, top dose 5.12 µM) | 0.73 | 1490
11 | NCI-SNU-5 (stomach, suspension, top dose 5.12 µM) | 0.892 | > 5120
12 | NCI-SNU-16 (stomach, suspension, top dose 5.12 µM) | 0.99 | > 5120
13 | NEC8 (testis, adherent, top dose 5.12 µM) | 0.966 | > 5120
14 | NH-12 (neuroblastoma, adherent, top dose 5.12 µM) | 0.74 | 1720
15 | NK-92MI (lymphoid neoplasm, suspension, top dose 5.12 µM) | 0.216 | 50.8
16 | NKM-1 (acute myeloid leukaemia, suspension, top dose 5.12 µM) | 0.289 | 79.5
17 | NMC-G1 (glioma, adherent, top dose 5.12 µM) | 0.743 | 1900
18 | NOMO-1 (acute myeloid leukaemia, suspension, top dose 5.12 µM) | 0.638 | 816
19 | NOS-1 (osteosarcoma, adherent, top dose 5.12 µM) | 0.389 | 148
20 | NTERA-2 cl.D1 (testis, adherent, top dose 5.12 µM) | 0.73 | 1440
21 | NU-DUL-1 (B-cell lymphoma, suspension, top dose 5.12 µM) | 0.056 | < 20
22 | NUGC-3 (stomach, adherent, top dose 5.12 µM) | 0.875 | > 5120
23 | NUGC-4 (stomach, adherent, top dose 5.12 µM) | 0.96 | > 5120
24 | NY (osteosarcoma, adherent, top dose 5.12 µM) | 0.965 | > 5120
25 | OACM5-1 (oesophagus, semi-adherent, top dose 5.12 µM) | 0.411 | 176
26 | OACp4C (oesophagus, adherent, top dose 5.12 µM) | 0.414 | 177
27 | OAW-28 (ovary, adherent, top dose 5.12 µM) | 0.759 | 2250

Row | Cell Line | AUC | IC50 [nM]
28 | OAW-42 (ovary, adherent, top dose 5.12 µM) | 0.58 | 540
29 | OC-314 (ovary, adherent, top dose 5.12 µM) | 0.749 | 1460
30 | OCI-AML2 (acute myeloid leukaemia, suspension, top dose 5.12 µM) | 0.896 | 3470
31 | OCI-AML3 (acute myeloid leukaemia, suspension, top dose 5.12 µM) | 0.453 | 242
32 | OCI-AML5 (acute myeloid leukaemia, suspension, top dose 5.12 µM) | 0.359 | 136
33 | OCI-LY-19 (B-cell lymphoma, suspension, top dose 5.12 µM) | 0.253 | 67.2
34 | OCI-M1 (acute myeloid leukaemia, suspension, top dose 5.12 µM) | 0.374 | 158
35 | OCUB-M (breast, adherent, top dose 5.12 µM) | 0.594 | 558
36 | OCUM-1 (stomach, adherent, top dose 5.12 µM) | 0.968 | > 5120
37 | OE19 (oesophagus, adherent, top dose 5.12 µM) | 0.984 | > 5120
38 | OE21 (oesophagus, adherent, top dose 5.12 µM) | 0.913 | > 5120
39 | OE33 (oesophagus, adherent, top dose 5.12 µM) | 0.766 | 2240
40 | OMC-1 (cervix, adherent, top dose 5.12 µM) | 0.81 | 2850
41 | ONS-76 (medulloblastoma, adherent, top dose 5.12 µM) | 0.856 | 4660
42 | OPM-2 (myeloma, suspension, top dose 5.12 µM) | 0.588 | 531
43 | OS-RC-2 (kidney, adherent, top dose 5.12 µM) | 0.601 | 684
44 | OSC-19 (head and neck, adherent, top dose 5.12 µM) | 0.859 | 4520
45 | OSC-20 (head and neck, adherent, top dose 5.12 µM) | 0.784 | 2620
46 | OV-7 (ovary, adherent, top dose 5.12 µM) | 0.635 | 920
47 | OV-17R (ovary, adherent, top dose 5.12 µM) | 0.642 | 927
48 | OV-56 (ovary, adherent, top dose 5.12 µM) | 0.776 | 1950
49 | OV-90 (ovary, adherent, top dose 5.12 µM) | 0.837 | 4910
50 | OVCA420 (ovary, adherent, top dose 5.12 µM) | 0.912 | > 5120
51 | OVCA433 (ovary, adherent, top dose 5.12 µM) | 0.834 | 3890
52 | OVCAR-3 (ovary, adherent, top dose 5.12 µM) | 0.933 | > 5120
53 | OVCAR-4 (ovary, adherent, top dose 5.12 µM) | 0.761 | 2720
54 | OVCAR-5 (ovary, adherent, top dose 5.12 µM) | 0.808 | 3330

Row | Cell Line | AUC | IC50 [nM]
55 | OVCAR-8 (ovary, adherent, top dose 5.12 µM) | 0.812 | 2380
56 | OVISE (ovary, adherent, top dose 5.12 µM) | 0.669 | 1110
57 | OVK-18 (ovary, adherent, top dose 5.12 µM) | 0.788 | 2510
58 | OVKATE (ovary, adherent, top dose 5.12 µM) | 0.829 | > 5120
59 | OVMIU (ovary, adherent, top dose 5.12 µM) | 0.424 | 189
60 | OVTOKO (ovary, adherent, top dose 5.12 µM) | 0.754 | 2150
61 | P12-ICHIKAWA (T-cell lymphoblastic leukaemia, suspension, top dose 5.12 µM) | 0.376 | 158
62 | P30-OHK (lymphoblastic leukaemia, suspension, top dose 5.12 µM) | 0.193 | 48.5
63 | P31-FUJ (acute myeloid leukaemia, suspension, top dose 5.12 µM) | 0.985 | > 5120
64 | P32-ISH (Burkitt lymphoma, suspension, top dose 5.12 µM) | 0.4 | 183
65 | PA-1 (ovary, adherent, top dose 5.12 µM) | 0.404 | 186
66 | PA-TU-8902 (pancreas, adherent, top dose 5.12 µM) | 0.681 | 1130
67 | PA-TU-8988T (pancreas, adherent, top dose 5.12 µM) | 0.797 | 2430
68 | PANC-02-03 (pancreas, adherent, top dose 5.12 µM) | 0.764 | 2210
69 | PANC-03-27 (pancreas, adherent, top dose 5.12 µM) | 0.665 | 892
70 | PANC-04-03 (pancreas, adherent, top dose 5.12 µM) | 0.976 | > 5120
71 | PANC-08-13 (pancreas, adherent, top dose 5.12 µM) | 0.639 | 867
72 | PANC-10-05 (pancreas, adherent, top dose 5.12 µM) | 0.544 | 435
73 | PC-3 (prostate, adherent, top dose 5.12 µM) | 0.638 | 841
74 | PC-3 [JPC-3] (lung adenocarcinoma, adherent, top dose 5.12 µM) | 0.645 | 925
75 | PC-14 (lung adenocarcinoma, adherent, top dose 5.12 µM) | 0.823 | 2590
76 | PCI-4B (head and neck, adherent, top dose 5.12 µM) | 0.805 | 2420
77 | PCI-6A (head and neck, adherent, top dose 5.12 µM) | 0.817 | 2790
78 | PCI-15A (head and neck, adherent, top dose 5.12 µM) | 0.81 | 2720
79 | PCI-30 (head and neck, adherent, top dose 5.12 µM) | 0.971 | > 5120
80 | PCI-38 (head and neck, adherent, top dose 5.12 µM) | 0.944 | > 5120

The IC50 comes from the fitted curve, where viability falls to half of the control; a limit (>, <) means that the fit lies beyond the doses tested. AUC sums up the same curve from the lowest dose to the 256-fold higher top dose; it is 1 without any effect and falls as sensitivity rises.
